About 550 (1.1%) of roughly 48,000 compounds were called active. Another 4% or so got no clear call; they are omitted. No stated cut-off is given here; in the data, active means potency below about 15 µM; inconclusive means mostly about 16 µM to 33 µM; inactive means weaker than that. The list shows a part of the results.
molecular target: Lysosomal acid glucosylceramidase (Homo sapiens) (UniProt P04062); assay: Glucocerebrosidase; conditions: purified enzyme, resorufin glucoside fluorescence (screen aimed at inhibitors), 20 min;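 further: the screen sought inhibitors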
Chain of UniProt P04062 (P04062 whole entry, looked up): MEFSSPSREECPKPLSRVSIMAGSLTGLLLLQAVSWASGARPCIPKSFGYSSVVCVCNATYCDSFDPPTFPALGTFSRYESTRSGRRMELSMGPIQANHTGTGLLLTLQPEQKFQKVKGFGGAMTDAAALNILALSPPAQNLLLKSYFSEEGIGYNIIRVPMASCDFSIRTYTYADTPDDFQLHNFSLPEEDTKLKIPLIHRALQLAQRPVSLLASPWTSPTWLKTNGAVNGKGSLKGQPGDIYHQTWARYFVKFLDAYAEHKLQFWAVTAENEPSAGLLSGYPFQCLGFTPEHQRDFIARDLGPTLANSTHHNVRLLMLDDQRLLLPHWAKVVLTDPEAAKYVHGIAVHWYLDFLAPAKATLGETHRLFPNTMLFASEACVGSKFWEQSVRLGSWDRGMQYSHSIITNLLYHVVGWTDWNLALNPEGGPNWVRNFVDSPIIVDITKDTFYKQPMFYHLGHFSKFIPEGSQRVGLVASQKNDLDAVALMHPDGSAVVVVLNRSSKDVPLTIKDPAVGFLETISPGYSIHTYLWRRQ
In short: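 Compounds titrated against 0.2 nM normal enzyme, 30 uM resorufin beta-D-glucopyranoside substrate, citrate/phosphate buffer with taurocholate and tween-20, pH 5.9. Reaction ran 20 min at room temperature; fluorescence (Ex 548/Em 600) gave AC50.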
Potency means the concentration at half of the fitted maximal effect.

Potency, inactive:
C=CCn1c(CC#N)nnc1N1CCOCC1 > 76.9 µM
COc1ccc(CCNS(=O)(=O)c2ccc3c(c2)CC(C)N3C(C)=O)cc1OC (stereo not drawn) > 76.9 µM
Cc1cc(Oc2ccc(=O)n(C)n2)nc(Oc2ccc(=O)[nH]n2)n1 > 76.9 µM
COC(=O)C(C)Sc1nc2c(c(=O)n1-c1ccccc1)SCC2 (stereo not drawn) > 76.9 µM
CCN(CC)S(=O)(=O)c1cc(Br)c(C)cc1OC > 76.9 µM
CCN1CCn2c1nc(N1CCOCC1)nc2=O > 76.9 µM
Cc1nc(N2CCC(C)CC2)c2oc3ccccc3c2n1 > 76.9 µM
CCOC(=O)c1cnc(-n2nc(C)cc2C)nc1NC1CCCCC1 > 76.9 µM
Fc1cc(F)c2nc(N3CCCCC3)sc2c1 > 76.9 µM
CSc1cccc(NC(=O)CN(C)S(=O)(=O)c2ccccc2)c1 > 76.9 µM
CCn1cc(C(=O)Nc2cccc(NC(C)=O)c2)c2cc(OC)c(OC)cc2c1=O > 76.9 µM
Cc1nnc(NC(=O)CSc2nnc3scc(-c4ccc(C)c(C)c4)n23)s1 > 76.9 µM
O=C(O)C1[C@H]2C(=O)N(C3CCCC3)C[C@]23C=C[C@H]1O3 (stereo partly drawn) > 76.9 µM
O=S(=O)(c1cccs1)N1CCN(Cc2nc3ccccc3s2)CC1
COc1cccc(OCCn2ccnc2)c1 > 76.9 µM
O=C(c1noc2c1CCCC2)N1CCOCC1 > 76.9 µM
Cc1cc(C)c2c(n1)sc1c(N3CCN(CCO)CC3)ncnc12 > 76.9 µM
O=C(NCCCN1CCN(c2ccc(F)cc2)CC1)c1cccc(N2CCCC2=O)c1 > 76.9 µM
CCOC(=O)N1CCN(CC(O)c2ccc3c(c2)CCN3)CC1 (stereo not drawn) > 76.9 µM
COC(=O)c1[nH]c2cc(OC)c(OC)cc2c1NC(=O)c1cccc(OC)c1 > 76.9 µM
CCOC(=O)c1cc(-c2cc3ccccc3o2)n[nH]1 > 76.9 µM
O=C(CN(Cc1ccco1)C(=O)c1cc(=O)[nH]c2ccccc12)Nc1ccccc1Br > 76.9 µM
Cc1ccc2[nH]c(=O)c(CN(CCCO)S(=O)(=O)c3cccc4nsnc34)cc2c1 > 76.9 µM
COC(=O)c1ccc(CN(c2ccc(C)cc2)S(=O)(=O)c2ccc3c(c2)OCCO3)o1 > 76.9 µM
O=C(NCc1cccnc1)c1cccc(C(F)(F)F)c1 > 76.9 µM
O=c1[nH]c(=O)n(Cc2ccco2)c2c1C(C(F)(F)F)(C(F)(F)F)N=C(C1CCCCC1)N2 > 76.9 µM
COc1ccc2nc(NC3=NCN(CC4CCCO4)CN3)nc(C)c2c1 (stereo not drawn) > 76.9 µM
Cc1cccc(N2C(=O)CC(Sc3nc(C)c4c(n3)CCCC4)C2=O)c1 (stereo not drawn) > 76.9 µM
CCOC(=O)C(NS(=O)(=O)c1ccc(Br)cc1)C(C)C (stereo not drawn) > 76.9 µM
COc1ccc(OC)c(NC(=O)C2CCN(c3nc(C)cc(C)n3)CC2)c1 > 76.9 µM
COc1cc2cc3c(N)c(C(=O)NCc4ccco4)sc3nc2cc1OC > 76.9 µM
CCCCNC(=O)OCCNC(=O)Oc1cccc(C)c1 > 76.9 µM
O=C(Nc1ccccc1)NC1(C(=O)N2CCN(C(=O)c3ccco3)CC2)CCCCC1 > 76.9 µM
COCC(=O)/C=C1\Sc2ccccc2N1C > 76.9 µM
Cc1nc2ncnn2c(N2CCN(c3cccc(C(F)(F)F)c3)CC2)c1C > 76.9 µM
O=C(CCn1nnc2ccccc21)Nc1nnc(Cc2ccc(F)cc2)s1 > 76.9 µM
c1ccc(-n2cnnc2SCc2cn3ccccc3n2)cc1 > 76.9 µM
CC(=O)c1cccc(NC(=O)N2CCCC2C(=O)Nc2cccc(C)c2C)c1 (stereo not drawn) > 76.9 µM
COc1ccc(OC)c(NS(=O)(=O)c2ccc(Cl)s2)c1 > 76.9 µM
CC(=Nc1ccc(O)cc1)c1sc2ccccc2c1O > 76.9 µM
COc1ccc(CN(CC2CCCO2)S(=O)(=O)c2ccc(C(=O)O)cc2)cc1OC (stereo not drawn) > 76.9 µM
COc1ccc(OC)c(NC(=O)CSc2nc(N)c(-c3ccccc3)c(=O)[nH]2)c1 > 76.9 µM
CCOC(=O)N1CCN(C(=O)c2ccc(N3C(=O)CCC3=O)cc2)CC1 > 76.9 µM
Brc1cccc(-c2nnc(SCc3nc4ccccc4[nH]3)o2)c1 > 76.9 µM
CCC(=O)Nc1sc(C(=O)OC)c(C)c1C(=O)OC > 76.9 µM
COc1ccc(/C(O)=C2/C(=O)C(=O)N(CC3CCCO3)C2c2cccc(OC)c2)cc1 (stereo not drawn) > 76.9 µM
N#Cc1ccc(OCC(=O)NCCc2ccc(S(N)(=O)=O)cc2)cc1 > 76.9 µM
O=S(=O)(NCCc1ccccc1F)c1cccc(S(=O)(=O)N2CCOCC2)c1
COc1ccc(OCC(O)Cn2c(=N)n(CCN3CCOCC3)c3ccccc32)cc1 (stereo not drawn)
COc1ccc(-n2c(CSc3nc(C)cc(C)n3)nnc2SCC(=O)Nc2nccs2)cc1 > 76.9 µM
COc1ccccc1NC(=O)CCNC(=O)Cn1ccc2ccccc2c1=O > 76.9 µM
Cc1ccc(/C(O)=C2/C(=O)C(=O)N(CCN3CCOCC3)C2c2ccccn2)cc1 (stereo not drawn) > 76.9 µM
O=C(NCc1cccs1)C1CCCN1C(=O)Nc1ccccc1 (stereo not drawn) > 76.9 µM
COc1cc(S(=O)(=O)n2c(C)nc3ccccc32)ccc1F > 76.9 µM
COc1nc(OC)nc(N2CCC(NC(=O)C(Cc3ccc(C(C)C)cc3)NC(C)=O)CC2)n1 (stereo not drawn) > 76.9 µM
O=C(NC1CCCCC1)c1cccnc1C(=O)O > 76.9 µM
NC(=O)C1CCN(C(=O)CN2CCCc3ccccc32)CC1 > 76.9 µM
Cc1cc(C)n(C(=O)CCNC(=O)c2ccccc2Br)n1 > 76.9 µM
